From the supplement of paper PMC4967469

Experiments:
Test in all cases: Viability of human cancer cell lines after 72 h of drug (GDSC screen)
AT-7519 = compound: O=C(NC1CCNCC1)c1n[nH]cc1NC(=O)c1c(Cl)cccc1Cl [AT-7519]; settings: top dose 10.24 µM; top dose inferred
Protocol: (§1)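 Human cancer cell lines in 384-well plates, medium with 10% serum, drug for 72 h over a 256-fold dose range (nine 2-fold or five 4-fold steps up to the top dose). Adherent lines were fixed and stained with the nucleic acid dye Syto60, suspension lines read with resazurin; signal relative to control wells, capped at 0 and 100%. One two-parameter sigmoid per drug and line, fitted in a mixed model over all curves with the slope shared within a line.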

XMD14-99 = compound: COc1cc(N2CCN(C)CC2)ccc1Nc1nc(N)c(C(=O)c2c(Cl)cccc2Cl)s1 [XMD14-99]; settings: top dose 10.24 µM; top dose inferred
Protocol: as §1

FH535 = compound: Cc1cc([N+](=O)[O-])ccc1NS(=O)(=O)c1cc(Cl)ccc1Cl [FH535]; settings: top dose 32 µM; top dose inferred
Protocol: as §1

Row | Cell Line | AUC (AT-7519) | IC50 (AT-7519) [µM] | AUC (XMD14-99) | IC50 (XMD14-99) [µM] | AUC (FH535) | IC50 (FH535) [µM]
1 | NCI-H1755 (lung adenocarcinoma, adherent) | 0.875 | > 10.2 | 0.833 | 8.15 | 0.77 | 14
2 | KYSE-270 (oesophagus, adherent) | 0.614 | 1.25 | 0.978 | > 10.2 | 0.597 | 3.53
3 | HCC1419 (breast, adherent) | 0.793 | 7.08 | 0.98 | > 10.2 | 0.603 | 4.32
4 | NCI-H2291 (lung adenocarcinoma, adherent) | 0.982 | > 10.2 | 0.975 | > 10.2 | 0.908 | > 32
5 | C3A (liver, adherent) | 0.97 | > 10.2 | 0.988 | > 10.2 | 0.528 | 2.4
6 | G-MEL (melanoma, adherent) | 0.695 | 2.23 | 0.965 | > 10.2 | 0.869 | 28.8
7 | FU97 (stomach, adherent) | 0.823 | 6.29 | 0.976 | > 10.2 | 0.412 | 1.14
8 | H2869 (mesothelioma, adherent) | 0.721 | 3.19 | 0.955 | > 10.2 | 0.843 | 31.3
9 | RERF-LC-KJ (lung adenocarcinoma, adherent) | 0.473 | 0.54 | 0.985 | > 10.2 | 0.603 | 3.87
10 | LU-135 (small cell lung carcinoma, suspension) | 0.856 | 6.1 | 0.978 | > 10.2 | 0.509 | 2.11
11 | KYSE-140 (oesophagus, adherent) | 0.463 | 0.499 | 0.984 | > 10.2 | 0.654 | 5.67
12 | KMH-2 (thyroid, adherent) | 0.677 | 1.88 | 0.988 | > 10.2 | 0.532 | 2.42
13 | WM278 (melanoma, adherent) | 0.761 | 4.06 | 0.981 | > 10.2 | 0.627 | 4.7
14 | NCI-H2172 (non-small cell lung carcinoma, adherent) | 0.934 | > 10.2 | 0.975 | > 10.2 | 0.851 | > 32
15 | HTC-C3 (thyroid, adherent) | 0.849 | 9.18 | 0.969 | > 10.2 | 0.486 | 1.83
16 | CAL-120 (breast, adherent) | 0.942 | > 10.2 | 0.976 | > 10.2 | 0.684 | 7.67
17 | SCC-9 (head and neck, adherent) | 0.472 | 0.524 | 0.961 | > 10.2 | 0.866 | > 32
18 | SUIT-2 (pancreas, adherent) | 0.867 | 9.99 | 0.945 | > 10.2 | 0.565 | 3.03
19 | U251 (glioma, adherent) | 0.461 | 0.504 | 0.98 | > 10.2 | 0.528 | 2.38
20 | NCI-H1792 (lung adenocarcinoma, adherent) | 0.754 | 3.14 | 0.99 | > 10.2 | 0.588 | 3.39

Row | Cell Line | AUC (AT-7519) | IC50 (AT-7519) [µM] | AUC (XMD14-99) | IC50 (XMD14-99) [µM] | AUC (FH535) | IC50 (FH535) [µM]
21 | PANC-08-13 (pancreas, adherent) | 0.556 | 0.949 | 0.963 | > 10.2 | 0.923 | > 32
22 | NCI-H841 (small cell lung carcinoma, adherent) | 0.862 | 8.85 | 0.981 | > 10.2 | 0.384 | 0.961
23 | JHU-022 (head and neck, adherent) | 0.892 | > 10.2 | 0.982 | > 10.2 | 0.931 | > 32
24 | DK-MG (glioma, adherent) | 0.85 | > 10.2 | 0.826 | > 10.2 | 0.761 | 17
25 | LN-18 (glioma, adherent) | 0.939 | > 10.2 | 0.994 | > 10.2 | 0.519 | 2.23
26 | YAPC (pancreas, adherent) | 0.735 | 3.59 | 0.984 | > 10.2 | 0.845 | > 32
27 | SK-MEL-24 (melanoma, adherent) | 0.81 | 6.82 | 0.983 | > 10.2 | 0.651 | 5.78
28 | EN (endometrium, adherent) | 0.713 | 3.04 | 0.974 | > 10.2 | 0.556 | 2.97
29 | PA-TU-8902 (pancreas, adherent) | 0.736 | 3.44 | 0.98 | > 10.2 | 0.616 | 4.41
30 | SK-MEL-28 (melanoma, adherent) | 0.925 | > 10.2 | 0.988 | > 10.2 | 0.267 | 0.441
31 | TGBC11TKB (stomach, adherent) | 0.726 | 2.56 | 0.963 | > 10.2 | 0.876 | 25.4
32 | RERF-GC-1B (stomach, adherent) | 0.714 | 2.78 | 0.965 | > 10.2 | 0.773 | 14
33 | SCC-4 (head and neck, adherent) | 0.826 | 7.81 | 0.984 | > 10.2 | 0.741 | 11.3
34 | A673 (rhabdomyosarcoma, adherent) | 0.582 | 1.05 | 0.988 | > 10.2 | 0.545 | 2.62
35 | HCC2998 (large intestine, adherent) | 0.547 | 0.858 | 0.988 | > 10.2 | 0.571 | 3.11
36 | RKN (ovary, adherent) | 0.524 | 0.745 | 0.974 | > 10.2 | 0.667 | 6
37 | SK-N-SH (neuroblastoma, adherent) | 0.934 | > 10.2 | 0.971 | > 10.2 | 0.404 | 1.09
38 | UACC-893 (breast, adherent) | 0.763 | 4.93 | 0.979 | > 10.2 | 0.525 | 2.39
39 | K2 (melanoma, adherent) | 0.906 | > 10.2 | 0.982 | > 10.2 | 0.414 | 1.09

The IC50 comes from the fitted curve, where viability falls to half of the control; where the fit passes the top or lowest dose, that dose stands as a limit. For AUC the same curve is integrated over the 256-fold range of doses and scaled to a fraction; it is 1 without any effect and falls as sensitivity rises. Where the top dose is marked as inferred, it was derived from the fitted curves, not read from the paper.
